Assay results published in patent publication US9701709B2 (REATA PHARMACEUTICALS, INC., priority 2012, dated 2017).

Experiments:
[1] = biological target: hERG channels expressed in HEK293 cells (Homo sapiens, UniProt Q12809); test: cell-based
[2] = tested on: bleomycin-induced pulmonary fibrosis; test: Bleomycin-induced pulmonary fibrosis in mice; assay type: in vivo, mouse; details: QD×39, C57BL/6 mice

hERG channels expressed in HEK293 cells, sequence (Q12809 whole entry): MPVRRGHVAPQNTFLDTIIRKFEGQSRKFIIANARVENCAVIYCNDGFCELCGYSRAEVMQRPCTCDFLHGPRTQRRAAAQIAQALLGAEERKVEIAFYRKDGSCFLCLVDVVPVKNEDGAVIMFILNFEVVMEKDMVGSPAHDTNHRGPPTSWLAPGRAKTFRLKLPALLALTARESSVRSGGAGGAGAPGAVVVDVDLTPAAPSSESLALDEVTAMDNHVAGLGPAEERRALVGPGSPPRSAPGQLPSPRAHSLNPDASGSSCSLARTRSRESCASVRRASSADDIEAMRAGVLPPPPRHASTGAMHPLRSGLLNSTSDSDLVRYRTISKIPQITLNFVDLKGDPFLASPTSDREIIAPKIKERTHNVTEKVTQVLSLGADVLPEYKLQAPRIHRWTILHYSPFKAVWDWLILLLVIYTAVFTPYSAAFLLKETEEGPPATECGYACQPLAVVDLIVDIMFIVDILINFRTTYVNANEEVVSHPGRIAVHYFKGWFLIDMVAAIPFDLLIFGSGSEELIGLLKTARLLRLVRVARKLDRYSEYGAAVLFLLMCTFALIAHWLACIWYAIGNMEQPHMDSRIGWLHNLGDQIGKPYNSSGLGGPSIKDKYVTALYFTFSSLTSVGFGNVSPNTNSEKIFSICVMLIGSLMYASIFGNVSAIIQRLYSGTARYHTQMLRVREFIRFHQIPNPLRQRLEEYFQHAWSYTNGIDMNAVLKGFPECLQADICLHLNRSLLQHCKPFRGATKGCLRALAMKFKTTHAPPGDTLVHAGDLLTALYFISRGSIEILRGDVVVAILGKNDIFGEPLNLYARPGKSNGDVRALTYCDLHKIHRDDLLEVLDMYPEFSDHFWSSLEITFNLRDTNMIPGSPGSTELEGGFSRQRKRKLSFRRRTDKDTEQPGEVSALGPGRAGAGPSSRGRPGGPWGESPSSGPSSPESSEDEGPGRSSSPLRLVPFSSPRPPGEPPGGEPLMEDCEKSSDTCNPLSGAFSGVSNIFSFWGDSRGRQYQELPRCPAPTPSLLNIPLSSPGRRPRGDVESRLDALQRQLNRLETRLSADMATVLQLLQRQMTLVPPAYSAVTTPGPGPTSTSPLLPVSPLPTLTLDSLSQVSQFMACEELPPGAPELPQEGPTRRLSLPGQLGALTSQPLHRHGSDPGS

| Structure (SMILES) | IC50 [1] | BALF inflammatory infiltrate [2] |
| --- | --- | --- |
| CC(=O)N[C@]12CCC(C)(C)C[C@H]1[C@H]1C(=O)C=C3[C@@]4(C)C=C(C#N)C(=O)C(C)(C)[C@@H]4CC[C@@]3(C)[C@]1(C)CC2 [Compound 63170] | 4.9 µM |  |
| CC1(C)CC[C@]2(NC(=O)C(C)(F)F)CC[C@]3(C)[C@H](C(=O)C=C4[C@@]5(C)C=C(C#N)C(=O)C(C)(C)[C@@H]5CC[C@]43C)[C@@H]2C1 [RTA 408, N-((4aS,6aR,6bS,8aR,12aS,14aR,14bS)-11-cyano-2,2,6a,6b,9,9,12a-heptamethyl-10,14-dioxo-1,2,3,4,4a,5,6,6a,6b,7,8,8a,9,10,12a,14,14a,14b-octadecahydropicen-4a-yl)-2,2-difluoropropanamide] | 12.4 µM | A notable reduction in inflammatory infiltrate was observed |
| CC1(C)CC[C@]2(NC(=O)C(F)(F)F)CC[C@]3(C)[C@H](C(=O)C=C4[C@@]5(C)C=C(C#N)C(=O)C(C)(C)[C@@H]5CC[C@]43C)[C@@H]2C1 [Compound 63171] | 15.7 µM |  |
| CCC(=O)N[C@]12CCC(C)(C)C[C@H]1[C@H]1C(=O)C=C3[C@@]4(C)C=C(C#N)C(=O)C(C)(C)[C@@H]4CC[C@@]3(C)[C@]1(C)CC2 [Compound 63189] | 3.8 µM |  |
